Test results: PubChem BioAssay AID1030 (National Center for Advancing Translational Sciences (NCATS), 2008)
Among all 220,000 compounds or so, about 16,000 (7.3%) were called active. Inconclusive results, whose numbers are uncertain, are shown with a selection of clear calls. Calls follow the shape of the dose curve; as a rule, active = well fitted inhibition curve with a large enough effect (not every such curve was filed as active); inconclusive = small, poorly fitted or top-dose-only effect, or another doubt; inactive = no such curve, though single readings can be large or run the other way. Potencies of inconclusive entries are doubtful fits and often do not repeat.

These compounds were tested against Aldehyde dehydrogenase 1A1 (Homo sapiens) (UniProt P00352) (assay: qHTS Assay for Inhibitors of Aldehyde Dehydrogenase 1 (ALDH1A1)). Conditions: Purified ALDH1A1, NADH fluorescence, propionaldehyde substrate; series mostly up to 75.3 µM; activity, negative = inhibition: at the top concentration.
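For activity, negative = inhibition in this document: plate controls were no enzyme wells and a reference inhibitor.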
Potency is read from the fitted curve at half-maximal effect; tags tell the direction and shape of the fitted curve.

Sequence of UniProt P00352 (P00352 whole entry, looked up): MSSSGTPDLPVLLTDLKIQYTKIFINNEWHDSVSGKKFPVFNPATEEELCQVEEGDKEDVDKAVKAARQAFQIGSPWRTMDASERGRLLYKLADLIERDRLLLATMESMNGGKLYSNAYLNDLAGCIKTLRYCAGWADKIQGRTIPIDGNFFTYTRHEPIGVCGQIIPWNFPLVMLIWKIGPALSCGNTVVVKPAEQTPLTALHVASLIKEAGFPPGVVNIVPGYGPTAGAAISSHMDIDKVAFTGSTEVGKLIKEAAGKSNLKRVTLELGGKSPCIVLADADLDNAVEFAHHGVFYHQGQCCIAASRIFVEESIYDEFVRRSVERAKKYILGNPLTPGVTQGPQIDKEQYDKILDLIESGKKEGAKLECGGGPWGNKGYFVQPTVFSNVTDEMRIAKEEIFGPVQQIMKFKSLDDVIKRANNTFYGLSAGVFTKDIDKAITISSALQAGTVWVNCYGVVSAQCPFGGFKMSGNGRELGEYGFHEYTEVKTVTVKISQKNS

activity, negative = inhibition, inactive:
Cc1cc([N+](=O)[O-])c(C)cc1-c1ccc(/C=N/NC(=O)c2cccnc2)o1 -15.7%
COc1ccc(-c2cc(C(=O)Nc3cc(OC)c(OC)c(OC)c3)no2)cc1OC 6.14%
CCCOc1ccccc1Nc1nnc(C)c(=O)[nH]1 5.87%
N#CC(C#N)=C1C=C2C=C(N3CCOCC3)CCC2CC1 (stereo not given) 3.05%
COC(=O)CCCCC(=O)OC -6.04%
Cn1nc(-c2ccc(C(=O)N3CCN(Cc4ccccc4)CC3)cc2)c2ccccc2c1=O -36.8%
COc1cccc2sc(N(CCCN(C)C)C(=O)c3sc4ccccc4c3Cl)nc12 3.85%
Nc1ccc(C(=O)c2ccccc2C(=O)O)cc1Cl 16.9%
CCc1nccn1S(=O)(=O)c1cc(OC)c(Cl)cc1OC 1.79%
CN(CC(=O)N1CCCCC1)S(=O)(=O)c1ccc(Cl)cc1 -3.2%
COC(=O)[C@H](CC(C)C)NC(=O)NCCCc1ccccc1 3.84%
CCOC(=O)c1c(C)oc2c(CC(=O)c3ccccc3)c(Cl)c(O)c(O)c12 -1.4%
O=C(N/N=C/c1ccccn1)c1cccnc1 0.679%
Clc1ccc(-c2nnc(SCc3nc4ccccc4[nH]3)o2)c(Cl)c1 -2.53%
CC(=O)OC1C2CCC1C([N+]1(C)CCCCC1)CC2 (stereo not given) 0.596%
CCCN1CCN(C(=S)Nc2ccc3nc(N4CCN(CC)CC4)cc(C)c3c2)CC1 -3.52%
CC(=O)c1sc(N/N=C\c2ccccc2O)nc1C -5.73%
N#Cc1cc(N)ccc1-n1cccc1 2.83%
COc1ccc(C=O)cc1COc1ccc(Cl)cc1[N+](=O)[O-] 2.44%

Potency, inconclusive:
Cc1ccc(S(=O)(=O)N2CCCC2C(=O)N(C)Cc2cccs2)cc1 (stereo not given) 20 µM [inhibitor, partial curve]
CO/N=C(/CS(=O)(=O)c1ccc(C)cc1)c1ccc(OC)cc1 20 µM [inhibitor, partial curve]
COc1ccc(CN2CCN(c3ccccn3)CC2)cc1OCc1ccccc1 39.8 µM [inhibitor, single point]
COc1ccc2c(c1)C(C)=CC(C)(C)N2C(=O)Nc1ccccc1 28.2 µM [inhibitor, partial curve]
Cc1cc2oc(=O)cc(CN3CCN(S(=O)(=O)c4ccc5c(c4)OCCO5)CC3)c2cc1C 3.16 µM [inhibitor, full curve]
COc1ccccc1CN(C)CC(=O)Nc1ccc(Cl)cc1C(F)(F)F 22.4 µM [inhibitor, partial curve]
O=C1NC(=Nc2ccc(O)cc2)S/C1=C/c1ccco1 37.7 µM [inhibitor, single point]
CSc1nc2sc(-c3ccccc3)cc2c(=O)n1N 7.94 µM [inhibitor, single point]
Cc1nc2cc(NCc3ccccc3O)ccc2n1Cc1ccccc1 39.8 µM [inhibitor, single point]
Cc1ccc(Cl)c(OCC(=O)NCc2ccco2)c1 39.8 µM [inhibitor, single point]
O=C1c2ccccc2C(Nc2ccc(S(=O)(=O)N3CCOCC3)cc2)N1c1ccccn1 (stereo not given) 39.8 µM [inhibitor, single point]
CCCC(=O)Nc1cc(-c2nnc(OC)c3ccccc23)ccc1N1CCCCC1 20 µM [inhibitor, single point]
COc1cc(C(=O)N2CCN(C/C=C/c3ccccc3)CC2)cc(OC)c1C 22.4 µM [inhibitor, single point]
CCOC(=O)N/N=C/c1cn(CCCOc2ccc(C)cc2)c2ccccc12 17.8 µM [inhibitor, partial curve]
COc1ccccc1/C=C/C=N/NC(=O)CN1CCN(Cc2ccccc2)CC1 35.5 µM [inhibitor, single point]
CCC(=O)NC(=S)Nc1ccc(NC(=O)c2ccc([N+](=O)[O-])cc2)cc1 39.8 µM [inhibitor, single point]
CCOc1ccc(Nc2oc(Cc3ccccc3)nc2C#N)cc1 20 µM [inhibitor, single point]
O=C(NCc1cccs1)c1cccnc1SCCS(=O)(=O)c1ccc(C(F)(F)F)cn1 31.6 µM [inhibitor, partial curve]
Clc1cccc(Cl)c1Cn1cc(Br)cn1 39.8 µM [inhibitor, single point]
CCN(CC)S(=O)(=O)c1cc(C(=O)Nc2ccncc2)ccc1Cl 39.8 µM [inhibitor, single point]
CCOC(CCn1c(SCc2cccc([N+](=O)[O-])c2)nc2ccccc2c1=O)OCC 11.2 µM [inhibitor, partial curve, poor fit]
O=C(c1cc2n(n1)C(C(F)(F)F)CC(c1ccco1)N2)N1CCc2ccccc2C1 (stereo not given) 17.8 µM [inhibitor, partial curve]
CCOC(=O)Cc1c(C)c2c(C)nn(-c3ccccc3)c2oc1=O 39.8 µM [inhibitor, single point]
Cc1nc(C)c(CCNC(=O)c2ccccc2Br)s1 39.8 µM [inhibitor, single point]
CN(C)C=Nc1c(C(=O)c2ccccc2)sc2nccc(N(C)C)c12 39.8 µM [inhibitor, single point]
Cc1csc(SCc2ccccc2C(=O)O)n1 39.8 µM [inhibitor, single point]
N#Cc1cc2cc3c(cc2nc1N1CCCCC1)OCCO3 15.8 µM [inhibitor, partial curve]
CCn1c(CSc2nc(C)cc(C)n2)nnc1SCC(=O)N1CCCc2ccccc21 28.2 µM [inhibitor, partial curve]
Cc1cc(C2C(=O)C(C(=O)c3ccc(Cl)cc3)C(=O)CC2(C)C)on1 (stereo not given) 35.5 µM [inhibitor, single point]
Nc1cc(C(F)(F)F)ccc1N1CCOCC1 35.5 µM [inhibitor, single point]
CC(C)(C)OC(=O)NCCc1nnc(SCc2ccc(Cl)cc2Cl)o1 39.8 µM [inhibitor, single point]
Cc1cnc(NC(=O)c2ccc3c(c2)C(=O)N(Cc2ccco2)C3=O)s1 7.94 µM [inhibitor, partial curve, poor fit]
O=C(CN1CCN(c2ccccc2F)CC1)NC(=O)NCc1ccco1 39.8 µM [inhibitor, single point]
OCCn1c(-c2ccc3c(c2)OCO3)csc1=Nc1ccccc1 39.8 µM [inhibitor, single point]
Cc1ccc(-c2cc(C(=O)Nc3ccccc3C)c3ccccc3n2)o1 25.1 µM [inhibitor, partial curve]
CC(C)C(=O)NC(=S)NCC(=O)c1ccccc1 39.8 µM [inhibitor, single point]
CCN(CC)S(=O)(=O)c1ccc(C)c(NC(=O)c2cc(C)oc2C)c1 20 µM [inhibitor, partial curve]
COc1ccc(S(=O)(=O)N(CCCN2CCOCC2)Cc2ccc(OC)c(OC)c2)cc1 14.1 µM [inhibitor, partial curve]
CCC1(C)Cc2c(sc3c2c(=O)n(C)c2nnc(SCc4ccccc4)n32)CO1 (stereo not given) 2.24 µM [inhibitor, partial curve]
O=C1CSC(c2ccc3c(c2)OCO3)N1c1ccc(Oc2ccccc2)cc1 (stereo not given) 39.8 µM [inhibitor, single point]
O=c1[nH]c(-c2ccc(O)cc2)nc2scc(-c3cccs3)c12 31.6 µM [inhibitor, partial curve]
COc1cc(S(=O)(=O)N(CCc2ccccc2)Cc2cccs2)ccc1-n1cnnn1 22.4 µM [inhibitor, single point]
CCOC(=O)C1CCCN(C(=O)Cn2sc3nc(C)cc(C)c3c2=O)C1 (stereo not given) 14.1 µM [inhibitor, partial curve]

Potency, active:
Cc1[nH]n(-c2ncc(-c3ccccc3)s2)c(=O)c1C(c1ccc(Br)cc1)C(C#N)C#N (stereo not given) 12.6 µM
c1coc(C2Nc3cccc4cccc(c34)N2)c1 25.1 µM
CC(C)Oc1ccc(C(=O)CCN2CCCCC2)cc1 0.0708 µM
O=C(/C=C/NNC(=O)c1cccc(Br)c1)c1ccccc1 2.82 µM
COC(=O)C1=C(C)N(C)C(=O)NC1c1ccc([N+](=O)[O-])o1 (stereo not given) 25.1 µM
CNc1cccccc1=S 10 µM
Cc1cc(/C=C2/NC(=O)N(Cc3ccccc3F)C2=O)c(C)n1C 1.12 µM
COc1ccc(NCc2nnc(SCC(=O)c3ccc(C)cc3)o2)cc1 28.2 µM
COc1cc(CN(C)CC(=O)c2[nH]c(C)c(C(C)=O)c2C)ccc1OC(F)F 3.55 µM
CC(C(=O)NC1CCCc2ccccc21)N1CCN(Cc2ccc3c(c2)OCO3)CC1 (stereo not given) 6.31 µM
CC(C)(C)N1CSC(=S)N(Cc2ccccc2)C1 31.6 µM
O=c1/c(=C\c2ccc(O)cc2)sc2n1C(c1ccccc1)C(c1ccccc1)=NN=2 (stereo not given) 8.91 µM
O=C1CN(C(=O)CNCc2ccc(Cl)cc2)c2ccccc2N1 12.6 µM
